The supplement of paper PMC10441789
Some of the results follow. Antibody binding of pooled human sera (four to six donors per pool; dilution not stated) to peptides of the Trypanosoma cruzi antigen TSSA on microarrays. Quantile-normalised fluorescence in arbitrary units, mean of duplicate arrays; higher = more binding. No active / inactive call. The uninfected pools are read here as the healthy donors of the same country. The strongest signals lie near the top of the scale (about 60,000).

These sequences were tested on pooled sera of uninfected people, Brazil (assay: antibody binding signal (normalised fluorescence) (arbitrary fluorescence units); higher = stronger serum antibody binding to peptide).
Method: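 Microarray of overlapping 15-residue peptides of the four Trypanosoma cruzi TSSA reference variants and 8- to 13-residue peptides of TSSAII 24-62, probed with one serum pool per country.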

Sequence	antibody binding signal
ENKPATGEAPSQP	248
SSTPPSGTEN	129
KTAAGGTPSPSGASS	649
PGASSGEAEASSNKN	148
TACTTANGGSTSSTP	214
TTANGGSTSSTPPSG	372
SSTPPSGT	169
SGTENKPATGEAPSQ	359
TEKKAAAGEAPSPSG	169
ASSGEAEASS	117
ASSGEAEA	125
AGGTPSPSGASSGEA	171
SSTPPSGTENKPATG	1160
SGASSGEAEASSNKN	110
ENKPATGEAPS	244
LSACTTANGGSTIST	144
ATGEAPSQ	105
ENKPATGEAP	258
QPGASSGE	141
ENKPATGEAPSQPGA	394

Sequence	antibody binding signal
TGEAPSQPGASS	151
PGTDKKTAAGGTPSP	1050
DKKTAAGEAPSPSGA	123
CTTANGGSTSSTPPS	634
EAPSQPGASSGEA	139
NKPATGEAPSQP	514
KPATGEAPS	188
PSGTENKPATG	934
ISTPPSGTDKKTAAG	150
EAPSQPGASSG	297
STPPSGTEN	128
SGTEKKAAAGEAPSP	3040
PATGEAPSQPG	379
LSACTTANGGSTSST	231
ANGGSTSST	313
ATGEAPSQPGA	222
TTANGGSTSSTPPGT	243
TAAGEAPSPSGASSG	2410
NGGSTISTPPSGTEK	555
PPGTDKKTAAGGTPS	720
